From ChEMBL document CHEMBL4888484, “Replenishing the malaria drug discovery pipeline: Screening and hit evaluation of the MMV Hit Generation Library 1 (HGL1) against asexual blood stage Plasmodium falciparum ,using a nano luciferase reporter read-out” (2022)
The whole screen tested about 150,000 compounds, of which about 540 (0.36%) showed an effect of 50% or more. The list shows a part of the results.

Tested on: Plasmodium falciparum
Assay: Primary screen in NF54 nanoGlo assay, in single point, at 2uM, 72h; a lower Z score goes with more inhibition
Assay type: functional, Erythrocyte
Details: timepoint 72 hour

SMILES | % Inhibition [%] | Z score | % Inhibition (2 µM) [%]
O=c1cccc2n1CCCN2Cc1ccccc1Cl | -3 | 0.4 | –
N#Cc1ccc2c(c1)N(C(=O)C1CCCC(F)C1)CC(=O)N2 (centres undefined) | 9 | -1.4 | –
CNC(=O)c1sc(Nc2cccnc2)nc1C | -15 | 2.15 | –
O=C(NCc1nccnc1-c1ccco1)Nc1nc(C2CC2)cs1 | 6 | -0.85 | –
CCN1CCCn2cc(S(=O)(=O)NCc3cccc(F)c3)cc2C1=O | -22 | 2.56 | –
CC(C)[C@H](NC(=O)c1ccccc1Br)C(=O)NCc1nnc2ccccn12 | -10 | 1.21 | –
O=C1CN(c2ncnc3c2CCCC3)CCN1 | -7 | 0.94 | –
O=C(Cn1c(=O)ccc2cc(S(=O)(=O)N3CCCC3)ccc21)NCc1ccc2c(c1)OCO2 | -8 | 1.02 | –
O=C(Nc1ccc2c(c1)OCO2)N1CC(O)CC1CO (centres undefined) | -6 | 0.89 | –
CN1CC(C(=O)N2CCCC(Cc3nc(-c4cnccn4)no3)C2)CC1=O (centres undefined) | 13 | -1.77 | –
COc1cccc(C(=O)N(CCCN2CCN(C)CC2)C2CCOCC2)c1OC | -5 | 0.84 | –
O=C(Cc1cccs1)NCc1ccc(-c2nc(C3CC3)no2)s1 | 5 | -0.88 | –
Cc1cn(-c2c(F)cccc2F)nc1C(=O)Nc1ccc(N(C)C)cn1 | -6 | 0.7 | –
CCn1c(CCc2cccc(NC(=O)Nc3cccc(F)c3)c2)nc2ccccc21 | 0 | -0.01 | –
CCCS(=O)(=O)N1CCC2(CC1)C[C@@H](N1CCN(c3ccccc3)CC1)CCO2 | -14 | 1.55 | –
CCc1cnc(CCN2C(=O)N[C@@H](C(C)(C)C)C2=O)s1 | 1 | -0.07 | –
CCCCN(CCO)C(=O)Nc1nn(CC(F)(F)F)cc1Cl | -10 | 1.03 | –
Cc1c(NC(=O)CNC(=O)Cc2ccccc2)c(=O)n(-c2ccccc2)n1C | -16 | 2.65 | –
Cc1ccc(C(=O)Nc2nccnc2C(=O)N2CCN(c3ccccc3)CC2)cc1 | -9 | 1.4 | –
CCN(C)c1nc(N2CCN(c3ccc(C)cc3)CC2)nc2c1CN(C(=O)c1ccccc1C)CC2 | -11 | 1.11 | –
c1cc(CNCc2csc(C3CC3)n2)cc(N2CCCCCC2)n1 | -4 | 0.8 | –
O=S(=O)(Nc1nnc(-c2ccsc2)s1)c1cccnc1 | -4 | 0.56 | –

SMILES | % Inhibition [%] | Z score | % Inhibition (2 µM) [%]
CCc1nnc(NC(=O)COC)s1 | 5 | -0.76 | –
C[C@]1(c2cc(F)cc(F)c2)NC(=O)N(Cc2ccccn2)C1=O | -5 | 0.59 | –
CC1CCCC(C#N)(NC(=O)c2ccc3c(c2)OCCO3)C1 (centres undefined) | -7 | 0.76 | –
Cc1ncoc1C(=O)NC(Cc1ccncc1)[C@H]1C[C@H](O)C1 (some centres undefined) | -12 | 1.27 | –
C[C@]1(C(=O)O)CCN(C(=O)c2cccc3[nH]ccc23)C1 | -20 | 1.87 | –
Cc1cnc(N[C@@H](C)C(=O)NC(C)(C)C)nc1 | -11 | 1.73 | –
CCN1C[C@@H](c2ccccc2)CC2(CCN(Cc3coc(C)n3)CC2)C1 | -12 | 1.01 | –
Cc1c[nH]c(CN2CCC(CNC(=O)[C@H]3CCOC3)CC2)n1 | 0 | -0.05 | –
O=C(NC1CCCCCC1)C1CCN(c2ccc3nncn3n2)CC1 | -17 | 2.09 | –
Cn1nc(NCc2ncc(Cl)n2C)cc1C(F)(F)F | -2 | 0.43 | –
COc1ccccc1-c1cc(C(=O)NCCc2ccccc2)c2c(-c3ccccc3)[nH]nc2n1 | -19 | 2.54 | –
Cc1nc2oc(-c3ccccc3)nc2cc1NC(=O)c1cccs1 | -20 | 2.55 | –
Cn1cc(C(F)(F)F)nc1[C@H]1CCCN(C(=O)c2cncnc2)C1 | -5 | 0.61 | –
O=C(O)C(c1ccccc1Br)N1CCCC(n2cncn2)C1 (centres undefined) | 1 | -0.14 | –
CCS(=O)(=O)NC[C@H](C)N(C)Cc1cc(C)cc(C)n1 | -7 | 1.41 | –
CC(C)c1cc(-c2nc(C3(S(C)(=O)=O)CCCC3)no2)n[nH]1 | -10 | 1.38 | –
O=C(CNC(=O)c1cnccn1)NCc1c(F)cccc1F | -3 | 0.42 | –
COc1ccc(CCNC(=O)c2cc3ccc4ccc(C)nc4c3[nH]2)cc1OC | 2 | -0.31 | –
CC(C)c1cc(-c2nc(CC3CC3)nn2C(C)C)n(C)n1 | -11 | 1.85 | –
CC(=O)N[C@H]1CCN(Cc2cc3ccccc3s2)C1 | 5 | -0.75 | –
CN1CC2(CCN(Cc3cc(C#N)n(C)c3)CC2)C[C@@H](c2ccccc2)C1=O | -3 | 0.64 | –
CCc1ccccc1NC(=O)Cn1ncn2c(C)c(C(=O)NCc3ccc(F)cc3)c(C)c2c1=O | -6 | 0.9 | –

SMILES | % Inhibition [%] | Z score | % Inhibition (2 µM) [%]
CCCN1CCN(c2nc(-c3ccc(OC)cc3)nc3c2CCOCC3)CC1 | -15 | 1.46 | –
COc1ccc(-c2c(C(=O)Nc3ccc(Cl)cc3C)nn3c(C)cc(=O)[nH]c23)cc1 | 1 | -0.09 | –
CC(C)[C@H](C)NC(=O)c1ccc(S(=O)(=O)N(C)C)cc1 | 31 | -3.5 | –
CCc1nc(C)c(C(=O)N2CCC[C@H](N(C)C(=O)c3ccc4nonc4c3)C2)o1 | -4 | 0.55 | –
CCc1noc(C)c1C(=O)N(CC)c1ncccc1C | -13 | 1.9 | –
C=C(C)Cn1c(-c2nccn2C)nnc1N1CCC(F)(F)C1 | -3 | 0.4 | –
Cc1c(NC(=O)[C@@H](F)C(F)(F)F)c(=O)n(C2CCCCC2)n1C | -12 | 2.22 | –
Cc1nc(NCc2ccccc2)sc1C(=O)Nc1ccccc1 | -8 | 1.08 | –
CCN(C)C[C@H]1CCN(S(=O)(=O)c2c[nH]c3cccc(F)c23)C1 | 0 | -0.04 | –
Cc1ccsc1CCC(=O)N1CCC(Oc2nncs2)CC1 | 26 | -3.26 | –
COc1ccc(C(=O)N2CCC3(CC2)C[C@@H](CNS(C)(=O)=O)CCO3)cc1F | 0 | -0.01 | –
CCCN(CC(=O)N1CCN(c2ccc(-c3cccc(OC)c3)nn2)CC1)C(=O)c1cccc(F)c1 | -6 | 0.62 | –
CC(=O)C1CN(C(=O)c2cc(C)cc(C)c2)C1 | -4 | 0.64 | –
O=C(N[C@H](c1ccccc1)c1cc2ccccc2o1)c1cc[n+]([O-])cc1 | 4 | -0.36 | –
O=C(NS(=O)(=O)C1CCOCC1)c1csc(-c2ccco2)n1 | 40 | -5.75 | –
CC1(C)C[C@@H]1C(=O)N(Cc1ncc[nH]1)c1cncc(Br)c1 | -4 | 0.89 | –
CC[C@H](C)N/C(=N\C(=O)c1ccccc1C)OCC(C)C | -13 | 2.17 | –
Cc1nn(CCCNc2ncnc3[nH]ccc23)c(C)c1C | -2 | 0.27 | –
CN1CCN(n2ccc3c(cnc4c(-c5ccccc5)cnn43)c2=O)CC1 | -9 | 1.16 | –
Cc1ccc(NCc2ccccn2)c(N(C)C)n1 | -17 | 1.5 | –
CCC(=O)N1CC[C@H](c2nc(C)no2)[C@H](NC(=O)COC)C1 | -11 | 1.38 | –
Cc1cc(C(=O)Nc2nc3c(s2)CNCC3)no1 | 16 | -2.07 | –

SMILES | % Inhibition [%] | Z score | % Inhibition (2 µM) [%]
O=C(N[C@H]1CCOC[C@@H]1Oc1ccc(CO)cc1)c1ncc(F)cc1F | -17 | 1.9 | –
O=C(Nc1ccc(Cl)c(Cl)c1)C1=C(c2ccccc2)S(=O)(=O)CCO1 | 4 | -0.5 | –
Cc1ccc(S(=O)(=O)c2ncccc2CNCCO)cc1 | -7 | 0.85 | –
CC[C@@H](CO)NCc1ccc(OC)cc1OC | – | – | -6
C=CCN(C)C(=O)NCC#Cc1ccc(C(F)(F)F)cc1 | -1 | 0.12 | –
C[C@H]1CN(C(=O)c2cccc(-n3cccn3)n2)CCC1(F)F | -13 | 1.72 | –
CN(C)c1cccc(CNCc2ccc(C#N)cc2)c1 | 1 | -0.08 | –
COC(=O)CC1(NCc2ccc(F)c(C)c2)CCS(=O)(=O)CC1 | -9 | 0.9 | –
c1ccc(CN2CCCN(Cc3cnsn3)CCOCC2)cc1 | 28 | -3.57 | –
CN(CC(=O)Nc1cc(F)cc(F)c1)c1ncnc2[nH]ccc12 | -10 | 1.89 | –
Cc1cnn(CCC(=O)N2C[C@H]3CN(Cc4ccccc4)C[C@@]3(CN(C)C)C2)c1 | -4 | 0.68 | –
Clc1cnn(Cc2csc(-c3ccco3)n2)c1 | -11 | 2.07 | –
Cc1cc(CN(C)Cc2nc(C(F)(F)F)no2)no1 | 3 | -0.5 | –
Cc1nc([C@H](C)n2ccnc2-c2cccc(-n3cccn3)c2)cs1 | -15 | 1.8 | –
Cn1cc(Cl)cc1C(=O)N1CC[C@](C)(C(=O)OC(C)(C)C)C1 | 15 | -1.7 | –
CC(C)N1CCO[C@@H](CCNC(=O)c2ccc3cccnc3n2)C1 | -11 | 1.79 | –
CCN(C1CCN(C(=O)[C@H](C)OCCC(C)C)CC1)S(C)(=O)=O | -12 | 1.58 | –
O=C1[C@H]2[C@@H](C(=O)N1Cc1ccccc1)[C@]1(C(=O)Nc3ccc(Cl)cc31)N1CCC[C@@H]21 | -4 | 0.56 | –
O=C1CCC(CCNCCOc2ccc(F)cc2)N1C1CCN(Cc2ccccc2)C1 (centres undefined) | -12 | 1.37 | –
